Laboratory results: the supplement of paper PMC4967469

Columns and labels:
Test in all cases: Viability of human cancer cell lines after 72 h of drug (GDSC screen)
[1] = compound: C=CC(=O)Nc1cc(NC(=O)c2ccc(C)c(NC(=O)c3ccno3)c2)cc(C(F)(F)F)c1 [QL-XI-92]; conditions: top dose 10.24 µM; top dose inferred
Description: (§1)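 Human cancer cell lines in 384-well plates, medium with 10% serum, drug for 72 h over a 256-fold dose range (nine 2-fold or five 4-fold steps up to the top dose). Adherent lines were fixed and stained with the nucleic acid dye Syto60, suspension lines read with resazurin; signal relative to control wells, capped at 0 and 100%. One two-parameter sigmoid per drug and line, fitted in a mixed model over all curves with the slope shared within a line.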

[2] = compound: CCC1=C[C@@H]2CN(C1)Cc1c([nH]c3ccccc13)[C@@](C(=O)OC)(c1cc3c(cc1OC)N(C)[C@H]1[C@@](O)(C(=O)OC)[C@H](OC(C)=O)[C@]4(CC)C=CCN5CC[C@]31[C@@H]54)C2 [Vinorelbine]; conditions: top dose 0.064 µM; top dose inferred
Description: as §1

[3] = compound: CNCc1ccc(-c2[nH]c3cc(F)cc4c3c2CCNC4=O)cc1 [AG-014699]; conditions: top dose 5 µM; top dose inferred
Description: as §1

[4] = compound: COc1cc2nccc(Oc3ccc(NC(=O)C4(C(=O)Nc5ccc(F)cc5)CC4)cc3)c2cc1OC [XL-184]; conditions: top dose 5.12 µM; top dose inferred
Description: as §1

[5] = compound: COc1cc2ncnc(Nc3cc(Br)c(O)c(Br)c3)c2cc1OC [WHI-P97]; conditions: top dose 10.24 µM; top dose inferred
Description: as §1

[6] = compound: COc1cc2ncnc(Nc3ccc(F)c(Cl)c3)c2cc1OCCCN1CCOCC1 [Gefitinib]; conditions: top dose 0.5 µM
Description: as §1

[7] = compound: N=C(N)NC(=N)NCCc1ccccc1 [Phenformin]; conditions: top dose 4000 µM; top dose inferred
Description: as §1

[8] = compound: N[C@@H](CSC(c1ccccc1)(c1ccccc1)c1ccccc1)C(=O)O [S-Trityl-L-cysteine]; conditions: top dose 5.12 µM; top dose inferred
Description: as §1

[9] = compound: O=c1cc(CN2CCOCC2)occ1OCCCCCSc1ccnc2cc(C(F)(F)F)ccc12 [EHT 1864]; conditions: top dose 10 µM; top dose inferred
Description: as §1

[10] = compound: O=c1cc(N2CCOCC2)oc2c(-c3cccc4c3sc3ccccc34)cccc12 [NU-7441]; conditions: top dose 2 µM; top dose inferred
Description: as §1

Cell Line: NEC8 (testis, adherent)
- AUC [1]: 0.984
- IC50 [1]: > 10.2 µM
- AUC [2]: 0.706
- IC50 [2]: 0.0137 µM
- AUC [3]: 0.98
- IC50 [3]: > 5 µM
- AUC [4]: 0.909
- IC50 [4]: > 5.12 µM
- AUC [5]: 0.965
- IC50 [5]: > 10.2 µM
- AUC [6]: 0.983
- IC50 [6]: > 0.5 µM
- AUC [7]: 0.988
- IC50 [7]: > 4000 µM
- AUC [8]: 0.811
- IC50 [8]: 2.23 µM
- AUC [9]: 0.984
- IC50 [9]: > 10 µM
- AUC [10]: 0.883
- IC50 [10]: 1.58 µM

Cell Line: NH-12 (neuroblastoma, adherent)
- AUC [1]: 0.972
- IC50 [1]: > 10.2 µM
- AUC [2]: 0.802
- IC50 [2]: 0.0362 µM
- AUC [3]: 0.955
- IC50 [3]: > 5 µM
- AUC [4]: 0.881
- IC50 [4]: > 5.12 µM
- AUC [5]: 0.965
- IC50 [5]: > 10.2 µM
- AUC [6]: 0.92
- IC50 [6]: > 0.5 µM
- AUC [7]: 0.984
- IC50 [7]: > 4000 µM
- AUC [8]: 0.981
- IC50 [8]: > 5.12 µM
- AUC [9]: 0.97
- IC50 [9]: > 10 µM
- AUC [10]: 0.978
- IC50 [10]: > 2 µM

Cell Line: NKM-1 (acute myeloid leukaemia, suspension)
- AUC [1]: 0.796
- IC50 [1]: 4.94 µM
- AUC [2]: 0.484
- IC50 [2]: 0.00362 µM
- AUC [3]: 0.894
- IC50 [3]: > 5 µM
- AUC [4]: 0.17
- IC50 [4]: 0.0307 µM
- AUC [5]: 0.978
- IC50 [5]: > 10.2 µM
- AUC [6]: 0.95
- IC50 [6]: > 0.5 µM
- AUC [7]: 0.496
- IC50 [7]: 243 µM
- AUC [8]: 0.87
- IC50 [8]: 5 µM
- AUC [9]: 0.942
- IC50 [9]: > 10 µM
- AUC [10]: 0.924
- IC50 [10]: > 2 µM

Cell Line: NMC-G1 (glioma, adherent)
- AUC [1]: 0.919
- IC50 [1]: > 10.2 µM
- AUC [2]: 0.701
- IC50 [2]: 0.017 µM
- AUC [3]: 0.909
- IC50 [3]: > 5 µM
- AUC [4]: 0.863
- IC50 [4]: > 5.12 µM
- AUC [5]: 0.977
- IC50 [5]: > 10.2 µM
- AUC [6]: 0.975
- IC50 [6]: > 0.5 µM
- AUC [7]: 0.817
- IC50 [7]: 2900 µM
- AUC [8]: 0.805
- IC50 [8]: 3.31 µM
- AUC [9]: 0.978
- IC50 [9]: > 10 µM
- AUC [10]: 0.965
- IC50 [10]: > 2 µM

Cell Line: NOS-1 (osteosarcoma, adherent)
- AUC [1]: 0.827
- IC50 [1]: 8.31 µM
- AUC [2]: 0.787
- IC50 [2]: 0.0351 µM
- AUC [3]: 0.96
- IC50 [3]: > 5 µM
- AUC [4]: 0.547
- IC50 [4]: 0.442 µM
- AUC [5]: 0.952
- IC50 [5]: > 10.2 µM
- AUC [6]: 0.96
- IC50 [6]: > 0.5 µM
- AUC [7]: 0.697
- IC50 [7]: 1030 µM
- AUC [8]: 0.7
- IC50 [8]: 1.34 µM
- AUC [9]: 0.899
- IC50 [9]: > 10 µM
- AUC [10]: 0.916
- IC50 [10]: > 2 µM

Cell Line: OCI-AML5 (acute myeloid leukaemia, suspension)
- AUC [1]: 0.72
- IC50 [1]: 2.52 µM
- AUC [2]: 0.644
- IC50 [2]: 0.00961 µM
- AUC [3]: 0.989
- IC50 [3]: > 5 µM
- AUC [4]: 0.549
- IC50 [4]: 0.431 µM
- AUC [5]: 0.945
- IC50 [5]: > 10.2 µM
- AUC [6]: 0.988
- IC50 [6]: > 0.5 µM
- AUC [7]: 0.654
- IC50 [7]: 641 µM
- AUC [8]: 0.677
- IC50 [8]: 0.948 µM
- AUC [9]: 0.979
- IC50 [9]: > 10 µM
- AUC [10]: 0.981
- IC50 [10]: > 2 µM

Cell Line: OCI-LY-19 (B-cell lymphoma, suspension)
- AUC [1]: 0.825
- IC50 [1]: 5.52 µM
- AUC [2]: 0.39
- IC50 [2]: 0.00204 µM
- AUC [3]: 0.944
- IC50 [3]: > 5 µM
- AUC [4]: 0.865
- IC50 [4]: 3.96 µM
- AUC [5]: 0.813
- IC50 [5]: 4.99 µM
- AUC [6]: 0.986
- IC50 [6]: > 0.5 µM
- AUC [7]: 0.391
- IC50 [7]: 129 µM
- AUC [8]: 0.58
- IC50 [8]: 0.521 µM
- AUC [9]: 0.969
- IC50 [9]: > 10 µM
- AUC [10]: 0.986
- IC50 [10]: > 2 µM

Cell Line: OMC-1 (cervix, adherent)
- AUC [1]: 0.983
- IC50 [1]: > 10.2 µM
- AUC [2]: 0.967
- IC50 [2]: > 0.064 µM
- AUC [3]: 0.988
- IC50 [3]: > 5 µM
- AUC [4]: 0.94
- IC50 [4]: > 5.12 µM
- AUC [5]: 0.969
- IC50 [5]: > 10.2 µM
- AUC [6]: 0.955
- IC50 [6]: > 0.5 µM
- AUC [7]: 0.521
- IC50 [7]: 285 µM
- AUC [8]: 0.961
- IC50 [8]: > 5.12 µM
- AUC [9]: 0.97
- IC50 [9]: > 10 µM
- AUC [10]: 0.976
- IC50 [10]: > 2 µM

Cell Line: P31-FUJ (acute myeloid leukaemia, suspension)
- AUC [1]: 0.995
- IC50 [1]: > 10.2 µM
- AUC [2]: 0.995
- IC50 [2]: > 0.064 µM
- AUC [3]: 0.989
- IC50 [3]: > 5 µM
- AUC [4]: 0.994
- IC50 [4]: > 5.12 µM
- AUC [5]: 0.993
- IC50 [5]: > 10.2 µM
- AUC [6]: 0.992
- IC50 [6]: > 0.5 µM
- AUC [7]: 0.854
- IC50 [7]: 2050 µM
- AUC [8]: 0.996
- IC50 [8]: > 5.12 µM
- AUC [9]: 0.971
- IC50 [9]: > 10 µM
- AUC [10]: 0.995
- IC50 [10]: > 2 µM

Cell Line: P32-ISH (Burkitt lymphoma, suspension)
- AUC [1]: 0.817
- IC50 [1]: 4.02 µM
- AUC [2]: 0.464
- IC50 [2]: 0.00326 µM
- AUC [3]: 0.995
- IC50 [3]: > 5 µM
- AUC [4]: 0.88
- IC50 [4]: 3.12 µM
- AUC [5]: 0.987
- IC50 [5]: > 10.2 µM
- AUC [6]: 0.989
- IC50 [6]: > 0.5 µM
- AUC [7]: 0.958
- IC50 [7]: > 4000 µM
- AUC [8]: 0.744
- IC50 [8]: 1.28 µM
- AUC [9]: 0.988
- IC50 [9]: > 10 µM
- AUC [10]: 0.995
- IC50 [10]: > 2 µM

Cell Line: PF-382 (T-cell lymphoblastic leukaemia, suspension)
- AUC [1]: 0.878
- IC50 [1]: 8.16 µM
- AUC [2]: 0.66
- IC50 [2]: 0.0104 µM
- AUC [3]: 0.986
- IC50 [3]: > 5 µM
- AUC [4]: 0.886
- IC50 [4]: 4.4 µM
- AUC [5]: 0.981
- IC50 [5]: > 10.2 µM
- AUC [6]: 0.977
- IC50 [6]: > 0.5 µM
- AUC [7]: 0.538
- IC50 [7]: 314 µM
- AUC [8]: 0.643
- IC50 [8]: 0.752 µM
- AUC [9]: 0.945
- IC50 [9]: > 10 µM
- AUC [10]: 0.991
- IC50 [10]: > 2 µM

Cell Line: QIMR-WIL (acute myeloid leukaemia, suspension)
- AUC [1]: 0.789
- IC50 [1]: 4.37 µM
- AUC [2]: 0.472
- IC50 [2]: 0.00336 µM
- AUC [3]: 0.984
- IC50 [3]: > 5 µM
- AUC [4]: 0.914
- IC50 [4]: > 5.12 µM
- AUC [5]: 0.915
- IC50 [5]: > 10.2 µM
- AUC [6]: 0.987
- IC50 [6]: > 0.5 µM
- AUC [7]: 0.669
- IC50 [7]: 728 µM
- AUC [8]: 0.65
- IC50 [8]: 0.824 µM
- AUC [9]: 0.958
- IC50 [9]: > 10 µM
- AUC [10]: 0.976
- IC50 [10]: > 2 µM

Cell Line: REH (B-cell leukaemia, suspension)
- AUC [1]: 0.784
- IC50 [1]: 4.15 µM
- AUC [2]: 0.586
- IC50 [2]: 0.00683 µM
- AUC [3]: 0.964
- IC50 [3]: > 5 µM
- AUC [4]: 0.86
- IC50 [4]: 4.03 µM
- AUC [5]: 0.964
- IC50 [5]: > 10.2 µM
- AUC [6]: 0.959
- IC50 [6]: > 0.5 µM
- AUC [7]: 0.379
- IC50 [7]: 118 µM
- AUC [8]: 0.959
- IC50 [8]: > 5.12 µM
- AUC [9]: 0.987
- IC50 [9]: > 10 µM
- AUC [10]: 0.982
- IC50 [10]: > 2 µM

A lower IC50 marks a more sensitive line; a limit (>, <) means that the fit lies beyond the doses tested. AUC, from the same fit, is the share of area under the viability curve across the 256-fold dose range: 1 means no effect, lower means more sensitive. For some assays here: Any top dose called inferred comes from the curve model; the source does not state it.
